Laboratory results published in patent US20070003565A1 (priority 2003, published 2007).
Residues, ends and D or L forms follow the SMILES beside them.

Tested on: 293 cells
Settings: 6 days, CPE, mean of triplicate experiments
Method: The 293 human embryonic kidney cell line (from the Cell Bank of the Chinese Academy of Sciences) was seeded on a 96-well plate with a concentration of 400,000/ml and incubated at 37° C., under 5% CO2 for 24 hours. The test drugs were then added. […] The positive control drug ganciclovir was in a serial dilution of 6000 μg/ml to 11.7 μg/ml. Cells at each concentration were seeded in 3 wells, 100 μl per well, and normal cells were setup as controls. Cells were incubated at 37° C. and under 5% CO2 for 6 days. A cytopathic effect (CPE) was observed under an inverted microscope everyday. Morphological: change of cells under 25% was defined “+”, 26%-50% was defined “++”, 51%-75% was defined “+++”, and 76%-100% was defined “++++”. Toxic dose 50 (TD50) and toxic dose 0 (TD0) of the drugs were calculated by the Reed-Muench method.
The above-mentioned drugs and positive control ganciclovir were applied to the 293 cell cultures. The toxic dose 0 (TD0) and toxic dose 50 (TD50) were calculated using the CPE method. The results listed below were means of triplicate experiments: […]

Structure (SMILES)	toxic dose 0 (TD0)	toxic dose 50 (TD50)
CC[C@H](C)[C@H](NC(=O)[C@@H](NC(=O)[C@@H]1CCCN1C(=O)[C@H](CC(=O)O)NC(=O)[C@H](Cc1c[nH]cn1)NC(=O)[C@@H](NC(=O)[C@@H](N)CCSC)[C@@H](C)O)C(C)C)C(=O)N[C@@H](CO)C(=O)N[C@@H](CC(C)C)C(=O)N1CCC[C@H]1C(=O)N[C@H](C(=O)N[C@H](C(=O)O)[C@@H](C)O)[C@@H](C)O [HAb18G-AP-1] (H-MTHDPVISLPTT-OH)	HAb18G-AP-1: toxic dose 0 (TD0): >1000 ± 0 μg/ml,	toxic dose 50 (TD50): >1000 ± 0 μg/ml
CC(C)C[C@H](NC(=O)[C@H](CCCCN)NC(=O)[C@@H](N)Cc1ccc(O)cc1)C(=O)N1CCC[C@H]1C(=O)NCC(=O)N[C@@H](Cc1c[nH]cn1)C(=O)N[C@@H](Cc1c[nH]cn1)C(=O)N[C@@H](Cc1c[nH]cn1)C(=O)N[C@@H](Cc1c[nH]cn1)C(=O)N[C@@H](Cc1ccc(O)cc1)C(=O)N[C@@H](CCCNC(=N)N)C(=O)N1CCC[C@H]1C(=O)O [HAb18G-AP-9] (H-YKLPGHHHHYRP-OH)	HAb18G-AP-9: toxic dose 0 (TD0): >1000 ± 0 μg/ml,	toxic dose 50 (TD50): >1000 ± 0 μg/ml
N=C(N)NCCC[C@H](NC(=O)[C@H](Cc1c[nH]cn1)NC(=O)[C@H](Cc1c[nH]c2ccccc12)NC(=O)[C@H](Cc1c[nH]cn1)NC(=O)[C@H](CCCCN)NC(=O)[C@H](Cc1c[nH]cn1)NC(=O)[C@H](Cc1c[nH]cn1)NC(=O)[C@H](Cc1ccccc1)NC(=O)[C@@H]1CCCN1C(=O)[C@@H](N)Cc1ccc(O)cc1)C(=O)N1CCC[C@H]1C(=O)N[C@@H](CC(N)=O)C(=O)O [HAb18G-AP-6, Tyr Pro Phe His His Lys His Typ His Arg Pro Asn] (H-YPFHHKHWHRPN-OH)	HAb18G-AP-6: toxic dose 0 (TD0): >1000 ± 0 μg/ml,	toxic dose 50 (TD50): >1000 ± 0 μg/ml
